Screen size: about 43,000 compounds; about 200 (0.47%) were called active. Not shown: some 12% with an inconclusive outcome. The call rests on the fitted dose curve; in most records, active means well fitted cell-killing curve with a large enough effect; inconclusive means small, poorly fitted or top-dose-only effect, or effect the other way; inactive means flat fitted curve, though single readings scatter. Some of the results follow.
assay: Cell viability qHTS assay in S16 Pmp22-F2sN cells; details: S16 Pmp22-F2sN Schwann cells (luciferase reporters placed in the Pmp22 gene) viability, CellTiter-Glo, 24 h; series mostly up to 57.5 µM; activity change, negative = cytotoxicity: at the top concentration; further: nearly all actives have a fitted effect of over 65% in size
Summary of the method: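 Rat S16 Schwann reporter line, 24 h treatment with library compounds delivered at 23 nL per well. Cell viability by CellTiter-Glo luminescence.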
On the % scale 0 is the no-effect control and ±100 the full control effect.

SMILES | activity change, negative = cytotoxicity
CCc1ccc(-n2nc(C)c3c(C)cc(=O)n(CC(=O)Nc4cc(C)ccc4C)c32)cc1 | inactive: -23.1%
COc1ccc(NC(=O)c2ncn(-c3ccccc3)n2)cc1Cl | inactive: -9.8%
Cc1ccc(Cn2c(=O)n(CCCCC(=O)NCc3ccc4c(c3)OCO4)c(=O)c3ccccc32)cc1 | inactive: -4.87%
COc1cccc(N2CCN(C3=NS(=O)(=O)C(c4ccc(C)cc4)=C3C)CC2)c1 | inactive: 0.451%
CCC(Sc1nnc2c(n1)[nH]c1ccccc12)C(=O)Nc1ccccc1OC (stereo not given) | inactive: -3.92%
Cc1cc(C)cc(C(=O)NCCc2csc(-c3ccc(C(F)(F)F)cc3)n2)c1 | inactive: -9.74%
Cn1cc(S(=O)(=O)N2CCCC2)cc1C(=O)N1CCN(c2cccc(Cl)c2)CC1 | inactive: 7.56%
Cc1cc(C)c(NC(=O)Cn2c(=O)n(CC3CCCO3)c(=O)c3ccccc32)c(C)c1 (stereo not given) | inactive: 8.63%
Cc1cc2c(cc1NS(=O)(=O)c1ccc(NC(=O)CC(C)C)cc1)n(C)c(=O)c(=O)n2C | inactive: 1.12%
Cc1ccc(N2C(=O)c3n[nH]c(C)c3C2c2ccccc2Cl)cc1 (stereo not given) | inactive: -0.279%
CC(=O)Nc1c(C)nn(-c2ccccc2)c1N1CCC(C(=O)Nc2cc(F)ccc2F)CC1 | inactive: -5.67%
COc1ccccc1NC(=O)N1CCN(Cc2nc3ccc(C)cc3o2)CC1 | inactive: -5.45%
CN(C)c1ccc(C(CNC(=O)c2ccccc2Cl)N2CCCC2)cc1 (stereo not given) | inactive: 0.392%
Cc1cc(C)c(NC(=O)C2CCN(S(=O)(=O)c3c(C)noc3/C=C/c3ccccc3F)CC2)c(C)c1 | inactive: 6.86%
COc1ccc(S(=O)(=O)c2c(Nc3ccc(C)cc3C)sc(C(=O)c3ccc(F)cc3)c2N)cc1 | inactive: -2.69%
O=C(NCc1ccccc1)C(=O)NCC(c1cccs1)S(=O)(=O)c1cccs1 (stereo not given) | inactive: 2.86%
Cc1nnsc1C(=O)Oc1ccc(Cl)cc1 | inactive: 8.13%
CN1C(=O)Cc2cc(S(=O)(=O)NCc3ccc(Cl)cc3)ccc21 | inactive: 0.12%
CC(C)(C)C1CCc2c(sc(NC(=O)c3ccco3)c2C(=O)Nc2ccccc2Cl)C1 (stereo not given) | inactive: -4.4%
CCOc1ccc(C(=O)OCc2cc(=O)n3nc(C4CC4)sc3n2)cc1 | inactive: 1.76%
COc1cc(Cl)c(C)cc1NC(=O)c1cc2c(=O)oc3ccccc3c2s1 | inactive: 7.36%
COc1ccc(CNC(=O)C2=CC(c3ccc(OC)c(OC)c3)=NS(=O)(=O)N2C)cc1 | inactive: 2.96%
Cc1cc(C(=O)N2CCN(c3cccc(Cl)c3)CC2)c2c(C)nn(-c3ccccc3Cl)c2n1 | inactive: -19.9%
CCOCCCNC(=O)c1cn(CC)c2ccc(S(=O)(=O)N3CCOCC3)cc2c1=O | inactive: 1.5%

SMILES | activity change, negative = cytotoxicity
CCOC(=O)CSc1nc2ccc(NC(=O)COc3ccc(F)cc3)cc2s1 | inactive: 8.17%
Cc1ccc(CNC(=O)C2CCN(S(=O)(=O)c3ccc4nc5c(c(C(=O)O)c4c3)CC(C)CC5)CC2)cc1 (stereo not given) | inactive: 1.11%
CCc1cnc2c(c1SCC(=O)NCc1ccc(C)cc1)c(=O)n(C)c(=O)n2C | inactive: 11.9%
Cc1ccccc1OCC(=O)Nc1ccc(-c2nc3cc(Cl)cc(Cl)c3o2)cc1 | inactive: 6.19%
COc1cccc(NC(=O)N(CCC(C)C)C2CCN(C(C)C)CC2)c1 | inactive: 17.1%
CC(=O)c1ccc(NS(=O)(=O)c2ccc(Br)s2)cc1 | inactive: -3%
COc1cccc(-n2c(=O)c3sc4ccccc4c3n(Cc3c(F)cccc3Cl)c2=O)c1 | inactive: 6.14%
Cc1ccc(-n2nc(CO)c(C(=O)NCCC(C)C)n2)cc1C | inactive: -2.86%
CCc1cccc(NC(=O)CSc2nnc(-c3cc4occc4n3C)n2-c2ccccc2C)c1 | inactive: -24.1%
Cc1ccc(CNC(=O)c2ccc(Cn3c(SCc4ccc(F)cc4)nc4cccnc43)cc2)o1 | inactive: 5.25%
O=c1n(Cc2ccc(F)cc2)c2ccccc2c2nc(-c3ccccc3)nn12 | inactive: 4.41%
COc1cccc(/C=C/c2nc(C#N)c(NC3CCCCC3)o2)c1 | inactive: 0.0421%
CSc1ccc(CCNC(=O)Cn2c(C)c3cnn(-c4ccccc4)c(=O)c3c2C)cc1 | inactive: 0.676%
Cc1ccc(N2C(=O)C(CC(=O)Nc3cccc(F)c3)N(CCc3ccccc3F)C2=O)cc1 (stereo not given) | inactive: -8.43%
CCCN(C(=O)CCc1nc(-c2ccc(C)cc2)no1)c1ccc(OCC)cc1 | inactive: -15.6%
CCOC(=O)c1c(C)oc2nc(C)nc(NCC3CCN(Cc4cc(C)ccc4C)CC3)c12 | inactive: 8.95%
CCOC(=O)c1c(NC(=O)c2cc(-c3cccc(Cl)c3)on2)sc(C(C)=O)c1C | inactive: 2.94%
O=C(C1COc2ccccc2O1)N(Cc1cccnc1)c1nc2c(F)cccc2s1 (stereo not given) | inactive: -4.54%
CC1CCN(S(=O)(=O)c2cc(C(=O)N3CCN(c4cccc(Cl)c4)CC3)n(C)c2)CC1 | inactive: -14.1%
Cc1ccc(Nc2c3c(nc4nncn24)CCC3)c(C)c1 | inactive: 1.89%
Cc1ccc(NC(=O)CN2C(=O)c3cccnc3Sc3ccccc32)c(Br)c1 | inactive: 2.7%
Cc1ccc(NC(=O)Cn2nnc(-c3ccccc3)n2)c(C)c1 | inactive: 11.5%
CCOc1ccc(S(=O)(=O)c2cn(CC)c3ccc(F)cc3c2=O)cc1 | inactive: -17.6%
CCOC(=O)c1nnn(C(CC)C(=O)Nc2ccc(F)cc2)c1C(=O)OCC (stereo not given) | inactive: -0.813%

SMILES | activity change, negative = cytotoxicity
COc1ccccc1C1C(C(=O)N2CCCCC2)=C(C)Nc2nc3ccccc3n21 (stereo not given) | inactive: 22.2%
COc1ccc(N(CC(=O)N2CCc3ccccc3C2)S(=O)(=O)c2ccccc2)cc1 | inactive: -5.22%
COC(=O)c1cc(NC(=O)CC2C(=O)OCCN2Cc2ccccc2)cc(C(=O)OC)c1 (stereo not given) | inactive: 6.48%
COc1cccc(OCC(=O)NC2CC(=O)N(c3cccc(OC)c3)C2)c1 (stereo not given) | inactive: 0.603%
Cc1ccccc1CSc1nc2c(sc3ccccc32)c(=O)n1CCCC(=O)NCCCOC(C)C | inactive: -5.24%
CC(C)(C)OC(=O)N1CCC(c2c(C(=O)N3CCN(C(=O)c4ccco4)CC3)cnn2-c2cccc(Cl)c2)CC1 | inactive: 6.82%
CC(=O)c1ccc(NC(=O)c2nc(-c3ccc(Cl)cc3)n3c2CCCCC3)cc1 | inactive: -1.09%
COCc1cc(C)nc2c1C(=O)NC(c1ccc(NC(C)=O)cc1)N2Cc1ccccc1 (stereo not given) | inactive: 5.4%
CS(=O)(=O)CC[C@@H](C(=O)NCCc1ccccc1)N1Cc2ccccc2C1=O | inactive: 2.68%
Cc1cc(C)c2c(=O)cc(C(=O)Nc3sc4c(c3C(=O)NCc3ccco3)CCCC4)oc2c1 | inactive: -0.284%
Cc1cccc(OCC(=O)N2CCC(c3nc4ccccc4o3)CC2)c1C | inactive: 22.6%
COc1ccc(NC(=O)Cn2c(=O)c3ccccc3n3nncc23)cc1Cl | inactive: -1.49%
CN(c1nnc(NC(=O)Nc2ccccc2C(F)(F)F)s1)C1CCCCC1 | inactive: -0.188%
Cc1c2cnn(CC(=O)NC(C)C)c(=O)c2c(C)n1Cc1cccc(Cl)c1 | inactive: 0.787%
COc1ccc(/C=C/c2nc(C#N)c(NCc3ccc(C)cc3)o2)cc1OC | inactive: 5.33%
O=C(NCCc1ccccc1)c1ccc2c(c1)N(Cc1ccc(F)cc1Cl)C(=O)CS2 | inactive: 7.12%
CCNC(=O)c1ccc2c(c1)sc1nc(-c3cccc(OC)c3)cn12 | inactive: -14.9%
CC(Oc1ccccc1)C(=O)Nc1cccc(-c2cn3cccnc3n2)c1 (stereo not given) | inactive: 6.44%
CCc1ccc(OC(=O)CSc2nnc(-c3ccc(OC)c(OC)c3)o2)cc1 | inactive: -3.41%
Cc1c(C(=O)OC2CCC(C)CC2)[nH]c2c1C(=O)CC(c1ccc(N(C)C)cc1)C2 (stereo not given) | inactive: 8.73%
COc1ccc(S(=O)(=O)c2c(C(=O)c3ccc(C)c(C)c3)cnc3ccc(C)cc23)cc1 | inactive: 1.87%
CCOc1nc(-c2ccccc2)ccc1-c1noc(-c2ccc(C)cc2)n1 | inactive: 5.91%
CCOc1ccc(NC(=O)CC2C(=O)N(c3ccccc3)C(=O)N2CCc2sccc2C)cc1 (stereo not given) | inactive: -21.8%
COc1ccc2c(c1)c(CC(=O)Nc1cc(C)cc(C)c1)c(C)n2C(=O)c1ccc(Cl)cc1 | inactive: -2.93%

SMILES | activity change, negative = cytotoxicity
CCOc1cc(S(=O)(=O)NCCc2c(C)[nH]c3ccc(C)cc23)ccc1F | inactive: -5.19%
CCN(CC)C(=O)c1sc2c(c1C)c(=O)n(Cc1ccccc1)c(=O)n2Cc1cc(C)ccc1C | inactive: 4.41%
COc1ccc(C)cc1NC(=O)c1sc2nc(-c3ccc(F)cc3)cn2c1C | inactive: 1.36%
O=C(Nc1ccccc1C(F)(F)F)c1cc2nc(-c3ccccc3)cc(-c3ccccc3)n2n1 | inactive: 19.2%
COc1ccccc1NC(=O)c1sc(-c2ccc(Cl)cc2)cc1N | inactive: -2.43%
CCc1ccc2c(c1)NC(c1ccc(F)cc1)=NC(c1ccncc1)=N2 | inactive: -13.2%
Cc1cc(C)c2oc(C(=O)Nc3ccc(S(=O)(=O)Nc4ncccn4)cc3)cc(=O)c2c1 | inactive: -2.48%
O=C(CCCn1ncn2c(cc3occc32)c1=O)NCc1ccccc1F | inactive: -2.11%
Cc1cc2c(cc1S(=O)(=O)C(C)CC(=O)NC1CCC(C)CC1)OCC(=O)N2 (stereo not given) | inactive: -3.94%
COc1ccc2c(CNC3CCCCCC3)c(C(=O)O)n(Cc3ccc(C)cc3)c2c1 | inactive: 8.76%
COc1ccc(CNC(=O)CN2C(=O)COc3ccc(S(=O)(=O)N4CCCCC4)cc32)cc1 | inactive: 10.4%
Cc1ccc(-c2noc(-c3cccnc3NCc3ccco3)n2)cc1 | inactive: 20.7%
Cc1cc(F)ccc1NC(=O)Cn1nc(N2CCN(c3ccccc3)CC2)ccc1=O | inactive: 12.3%
CCc1nnc(SCc2cccc(Cl)c2)c2cc3sccc3n12 | inactive: -24.1%
Cc1cc(C)c(NC(=O)CSc2nc3nccnc3c(=O)n2CCc2c[nH]c3ccccc23)c(C)c1 | inactive: -2.05%
CCOc1cccc(C(=O)Nc2ccc3oc(-c4ccncc4)nc3c2)c1 | inactive: 15.7%
COc1ccc(-c2cc(OC(=O)c3ccccc3Cl)c3c(C)oc(C)c3c(=O)c2)cc1OC | inactive: -20.8%
CCCSc1oc(-c2cccs2)nc1S(=O)(=O)c1ccc(C)cc1 | inactive: 3.33%
O=C(Nc1cccc(C(=O)OCc2cc(=O)n3c4c(sc3n2)CCCC4)c1)c1ccc(Cl)cc1 | inactive: -39%
COc1ccc(NC(=O)Cn2c(=O)n(CCCCCC(=O)NCc3ccc4c(c3)OCO4)c(=O)c3sccc32)cc1Cl | inactive: 5.1%
Cc1ccc(Cn2c(C)c3cnn(CC(=O)O)c(=O)c3c2C)cc1 | inactive: 13.4%
O=C(Cn1cc(SCc2ccc(F)cc2)c2ccccc21)N1CCCCC1 | inactive: -11.9%
CCOc1ccc(CNC(=O)CCCn2c(=O)c3cccn3c3ccccc32)cc1 | inactive: -17.7%
